Results taken from article PMC11603075 (Communications Biology, 2024).

What was measured:
KDM4E = biological target: T1, KDM4E (Homo sapiens, UniProt B2RXH2); assay: MALDI–TOF MS time course of H3(1–21)K9me3 demethylation, cofactor dependence; format: biochemical; conditions: 0.6 µM KDM4E, 10 µM peptide; no 2OG; n = 2
T1 construct: KDM4E1–337; made in house; host or cells: E. coli
T1 sequence (B2RXH2 1-337): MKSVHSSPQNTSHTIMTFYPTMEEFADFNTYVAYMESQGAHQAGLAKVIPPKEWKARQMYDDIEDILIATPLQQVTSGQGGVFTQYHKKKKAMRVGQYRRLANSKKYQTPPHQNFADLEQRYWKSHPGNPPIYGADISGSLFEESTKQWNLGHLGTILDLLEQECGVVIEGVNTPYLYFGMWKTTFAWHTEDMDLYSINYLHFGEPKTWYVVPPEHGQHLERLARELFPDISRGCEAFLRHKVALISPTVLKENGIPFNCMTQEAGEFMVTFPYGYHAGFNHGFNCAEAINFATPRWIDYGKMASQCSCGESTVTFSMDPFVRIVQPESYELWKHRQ
Protocol: (§1) MS-based screening assays with peptides and calf thymus histones were as reported; see Supplementary Table 6 for conditions. Time course assays were based on reported procedures. In brief, equal volumes of the enzyme and substrate solutions were combined to initiate the reaction; 10 µL of 2% (v/v) formic acid (HCOOH) in ddH2O or 100% methanol was added to 10 µL of the reaction mixture to quench reactions at different time points. Unless otherwise stated, time course assays were carried out in triplicate.
MAL DI –TOF MS time courses measuring (a) +16 Da product formation with H2a(1– 20) and (b) demethylation of H3(1–21)K9me3 by KDM4E. Time courses with all components (i.e.
(NH4)2Fe(SO4)2 (Fe(II)), sodium L-ascorbate (Asc) and 2OG), or with one missing component (Fe(II), […]
ascorbate or 2OG) were done. […] Error bars: +/- SD; n = 2
(independent assays). Legend for (a) and (b) can be foun d combined in (b). Condit ions: (a) 2 µM KDM4E, 7 […]
µM (NH4)2Fe(SO4)2, and 50 mM HEPES (pH 7.5). (c,d) Inhibition of arginine hydroxylation (ROH) activity of KDM4E by small molecule 2OG oxygenase inhibitors. ( c ) ROH activity measurements were performed using an LC–MS based assay (Error bars; +/- SD; n = 3 independent assays). Conditions: 10 µM H2a(1 -20) incubated with 1 µM KDM4E, 100 µM sodium L-ascorbate, 10 µM (NH4)2Fe(SO4)2 and 100 µM 2OG.
Reactions wer e quenched after 90 min.
KDM and RDM activity. […]

KDM4D = assay: MALDI–TOF MS demethylation/+16 Da assay, KDM4D; format: biochemical, human; conditions: 60 min
Source text: Fig. 2 Histone H2a fragments are KDM5 and KDM4 substrates. […] See Supplementary Table 6 and Supplementary Fig. 2 for assay conditions and quantification, respectively. […] 0-minute MS spectrum in black, 60/90-minute spectrum in red.
as §1, with “triplicate. In some cases, LC–MS was used instead of MALDI-TOF MS to avoid a MALDI matrix induced artefact with the hydroxylated product (Supplementary Fig. 16). […]” for “triplicate.”
Supplementary Figure 2 Histone H2a peptide fragments are substrates of KDM4s and KDM5s.
2 for representative corresponding MALDI–TOF MS traces. Bar graphs comparing % product format ion (+16 Da and demethylation) of H2a(1–20)R3me2a by (a) K DM5 A–D (after 90 minutes) and (b) KDM4A–E ( a ft er 60 minutes), analysed by MALDI– TOF MS. n = (a) 2, (b) 3 (independent assays). See Supplementary Table 6 for assay condit ions. See Figure S13 A 1 for a positive control.
(also on this page, place not known: formation KDM5A–D (after MALDI–TOF conditions. Figure S13A1 KDM4A KDM4B KDM4C KDM4D KDM4E 80% product formation KDM5A KDM5B KDM5C KDM5D % product formation) […]
[ E nz ym e] [Peptide] [2OG] [Ascorbate] [(NH4)2F e(S O4)2] [TCEP] Buffer pH7.5 Enzyme Cognate substrate (mM) (mM) (mM) (mM) (mM) (mM) [HE PE S]
Supplementary Table 6 Summary of MS assay conditions for substrate screening. These conditions enabled efficient turnover of established substrates. Reactions were carried out at 37 °C unless otherwise st ated. […]

reaction without 2OG (KDM4E)	Substance	+16 Da (% product formation) (KDM4D; replicate 1)	demethylation (% product formation) (KDM4D; replicate 1)	+16 Da (% product formation) (KDM4D; replicate 2)	demethylation (% product formation) (KDM4D; replicate 2)	+16 Da (% product formation) (KDM4D; replicate 3)	demethylation (% product formation) (KDM4D; replicate 3)
No reaction was observed without 2OG	AR T KQ T AR K[ me 3] ST GGKAPR KQ L A [H3(1–21)K9me3, reference compound]	–	–	–	–	–	–
–	Ac - SGR [ me 2a ] GKQ GGKAR AKAKT R SSR [H2a(1–20)R3me2a, H2a(1–20)R3me2a without a biotin tag]	0%	12.4455%	0%	5.572%	0%	7.194%
